Experimental data published in PubChem BioAssay AID1963576 (National Center for Advancing Translational Sciences (NCATS), 2024).
In all, about 46,000 compounds went through this assay and about 60 (0.1%) were called active. About 3% were inconclusive and are not listed. The call rests on the fitted dose curve; in most records, active means well fitted inhibition curve with a large enough effect; inconclusive means small, poorly fitted or top-dose-only effect; inactive means no such curve, though single readings can be large or run the other way. The list shows a part of the results.

Assay: Primary qHTS assay for Inhibitors of ovarian cancer metastasis using an organotypic tumor microenvironment (TME) model. Further: nearly all actives have a fitted effect of over 65% in size.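 On activity change, negative = inhibition: plate controls were DMSO wells for no effect and tomatine positive control wells for full effect.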
Conditions: SKOV3ip1-GFP adhesion/invasion on 3D omental model, fluorescence; series mostly up to 45.8 µM; activity change, negative = inhibition: at the top concentration
In short: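 Primary human omental fibroblast/mesothelial 3D culture pre-formed 48 h. SKOV3ip1-GFP cells added with compounds (0.36-46 umol/L), incubated 2 h RT/16 h 37 C, fixed; GFP cells quantified at 488/509 nm.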

Activity change, negative = inhibition, inactive:
Cc1cccc(-c2nc3c(cnn3-c3ccccc3)c(=O)n2-c2ccc(Br)cc2)c1 -12%
CC(C)(C)C1CCc2nc(NC(=O)c3ccc([N+](=O)[O-])cc3)sc2C1 (stereo not given) -2.34%
Cc1ccc2[nH]c(CSc3nnc(NC(=O)c4ccccc4F)s3)cc(=O)c2c1 2.24%
CCc1ccccc1NC(=O)c1sc2nc(C)cc(COC)c2c1N 0.621%
COc1ccccc1CNC(=O)C1CCCN(c2nnc(C)c3c(C)n(-c4ccccc4)nc23)C1 (stereo not given) -25.8%
COCc1cc(C)nc2sc3c(c12)NC(c1ccc(O)c(OC)c1)N(c1ccccc1)C3=O (stereo not given) -1.53%
CC(C)c1ccc(CNc2nc(-c3ccco3)nn2C(=O)c2ccc([N+](=O)[O-])cc2)cc1 -3.46%
CSCCC(NS(=O)(=O)c1ccc2c(c1)oc(=O)n2C)C(=O)Nc1ccc(Cl)cc1 (stereo not given) -2.5%
COc1cc(OC)cc(-c2cc3nc(C)c(CCC(=O)Nc4ccc(C(C)=O)cc4)c(C)n3n2)c1 0.147%
O=C(NC1(C(F)(F)F)C(=O)Nc2c1c(=O)[nH]c(=O)n2-c1ccccc1)c1ccccc1Cl (stereo not given) 1.77%
C=Cc1ccc(Cn2c(=O)cc(C)c3c(C)nn(-c4ccccc4)c32)cc1 -2.59%
CCOCCCNc1nc2ccccc2n2c(CC)nnc12 0.788%
COc1ccc(-c2noc(N3CCC(C(=O)N4CCN(c5ccccc5F)CC4)CC3)n2)cc1 5.1%
COc1ccc(NC(=O)Cn2c(=O)n(Cc3ccc4c(c3)OCO4)c(=O)c3ccc(C(=O)NC4CCCCC4)cc32)cc1 -7.53%
CCn1c(C)c(C)c2cc(C(=O)NCc3ccc(OC(C)C)cc3)ccc21 -8.18%
COc1ccc2c(c1)cc1c(=O)n(CC(=O)NCCCOC(C)C)nc(C)n12 9.7%
COc1cc2c(C(=O)N3CCN(c4cccc(C(F)(F)F)c4)CC3)cn(CC(C)C)c(=O)c2cc1OC 0.646%
COc1ccc(-c2cn3nc(N4CCCC(C(=O)Nc5ccccc5OC)C4)sc3n2)cc1 (stereo not given) -10.1%
COc1ccccc1NC(=O)CSc1nc(-c2ccc(C)cc2)nc2c1Cc1c(CO)cnc(C)c1O2 3.37%
CCOC(=O)c1c(S(=O)(=O)NCC(=O)N2CCN(c3cc(C)ccc3C)CC2)c(C)n(C)c1C 1.16%
Cc1cccc(NC(=O)CCN2CCN(c3ccccc3F)CC2)c1 14.7%
Cc1ccc(Cl)cc1NC(=O)CN1C(=O)CSc2ccc(S(=O)(=O)N3CCCC3)cc21 -12.3%
CCOCCc1nn2c(=O)cc(COC(=O)Cc3ccccc3)nc2s1 11%
CSCC[C@@H](C(=O)Nc1cccc(F)c1)N1Cc2ccccc2C1=O 22.8%
CCCN(C(=O)Cn1ncc2c1-c1ccccc1OC2)c1cccc(C)c1 0.637%
CCc1ccc(-c2nc(SCC(=O)NCC3CCCO3)c(-c3ccc(C)cc3)[nH]2)cc1 (stereo not given) 11.9%
Cc1cccc(N2CCN(c3ccc(C(=O)O)cc3NC(=O)c3cccc(Cl)c3)CC2C)c1 (stereo not given) 3.28%
Cc1cc(C)cc(-n2c(C)cc(C(=O)C(=O)Nc3nnc(C)s3)c2C)c1 9.16%
CN(C(=O)Cn1cnc2onc(-c3ccc(F)cc3)c2c1=O)c1ccccc1Cl -3.46%
O=C(Nc1cc2c(cc1C(=O)c1cccc(Br)c1)OCCO2)c1ccccc1F 34.2%
CN(c1ccccc1)S(=O)(=O)c1nnc(NC(=O)COc2ccccc2)s1 -1.33%
CCOC(=O)c1cc2c(=O)n3ccccc3nc2n(Cc2ccco2)c1=NC(=O)c1ccc(C)c(C)c1 -5.64%
CCOc1ccc(C(=O)NCc2nc3cccnc3n2Cc2cccc(OC)c2)cc1 15.3%
CCCN(CCC)C(=O)Cn1c(SCc2cccc(C(F)(F)F)c2)nc2cccnc21 -13.4%
O=C(NC1(C(F)(F)F)C(=O)Nc2c1c(=O)[nH]c(=O)n2-c1ccccc1)c1ccccc1 (stereo not given) 3.25%
CCOc1ccccc1CNC(=O)c1ccc(NC(=O)N2CC(C)Sc3ccccc32)cc1 (stereo not given) 1.86%
COc1ccc(OC)c(CNC(=O)CN(c2ccc(C)cc2)S(=O)(=O)N(C)C)c1 8%
CC(=O)c1ccc(NC(=O)CN2C(=O)CCc3ccccc32)cc1 -5.93%
Cc1ccc(Cn2cc(CCC(=O)NC3CCC(C)CC3)c3ccccc32)cc1 (stereo not given) 10.5%
O=C(CSc1oc(-c2ccccc2)nc1S(=O)(=O)c1ccc(Cl)cc1)Nc1ccc(F)cc1 -11.3%
CCOC(=O)c1cccc(NC(=O)NCc2cccn2Cc2ccccc2)c1 0.642%
Cc1ccc2occ(CC(=O)N(Cc3ccccc3Cl)C3CCS(=O)(=O)C3)c2c1 (stereo not given) 0.643%
Cn1c(=O)oc2cc(S(=O)(=O)N3CCCC(C(=O)NCCc4ccc(Cl)cc4)C3)ccc21 (stereo not given) 44.9%
CCCCSc1nc(-c2ccc(OC)cc2)ccc1C#N 3.49%
Cc1ccc(-c2nc(-c3cc4c([nH]c3=O)CC(C)(C)CC4=O)sc2C)cc1 -3.12%
COC(=O)c1ccccc1NC(=O)Cn1c(CCC(=O)O)ccc1-c1cccs1 13.1%
Cc1cccc(-c2nc(C)c(CCNC(=O)C(=O)Nc3cccc(Cl)c3C)s2)c1 2.91%
O=C(Cn1cc(SCc2ccc(C(F)(F)F)cc2)c2ccccc21)N1CCOCC1 2.95%
O=C1CCC(N2C(=O)c3ccccc3C2=O)C(=O)N1 (stereo not given) -11.6%
COC(=O)CSc1ncc2c(n1)-c1ccccc1N(Cc1ccccc1C)S2(=O)=O 4.28%
CC(C)Oc1ccc(CNC(=O)CCCN2C(=O)CCn3nc(-c4cccn4C)cc32)cc1 3.62%
COc1ccccc1N1CCN(C(=O)C(CCSC)NS(=O)(=O)c2ccc3c(c2)oc(=O)n3C)CC1 (stereo not given) 1.36%
COc1ccc2nc3oc(C(=O)N4CCN(c5cc(C)ccc5C)CC4)cc3cc2c1 -13.3%
CCC(=O)N1CCc2cc(S(=O)(=O)CCC(=O)Nc3ccc(OC(F)(F)F)cc3)ccc21 10.4%
O=C(Nc1ccc(F)cc1)N1CCN(c2ccccc2F)CC1 9.58%
COc1cccc(CNS(=O)(=O)c2ccc3c(c2)CCN3C(=O)C2CCC2)c1 -6.28%
O=C(Nc1c(C(=O)N2CCN(c3ccccc3)CC2)oc2ccccc12)c1ccc(Br)o1 -1.49%
O=C(NCc1cccs1)c1ccc(Cn2c(SCc3ccccc3)nc3cccnc32)cc1 -22.3%
COc1ccc(Cn2c(SCC(=O)NCc3ccc(Cl)cc3)nc3ccsc3c2=O)cc1 9.2%
CCOC(=O)c1ccc(-n2c(CCC(=O)O)ccc2-c2ccc(Br)cc2)cc1 -3.58%
O=C(CC(c1cccs1)N1Cc2ccccc2C1=O)Nc1ccc(F)c(F)c1 (stereo not given) -8.38%
COc1ccc(N2C(=O)CS(=O)(=O)C23C(=O)N(Cc2cccc(F)c2)c2ccccc23)cc1OC (stereo not given) 12.3%
Cc1ccc(-c2ccc(=O)n(CC(=O)Nc3ccc(C)cc3Cl)n2)cc1 9.02%
Cc1cccc(CN2C(=O)N(c3ccc(C(C)C)cc3)S(=O)(=O)c3ccccc32)c1 3.18%
COc1ccccc1-c1nc(SCC(=O)NCc2ccc(C)cc2)c2c(=O)n(C)c(=O)n(C)c2n1 -25.6%
COc1ccc(C2C=C(c3ccccc3)Nc3nc(NC(=O)c4cccc([N+](=O)[O-])c4)nn32)cc1 (stereo not given) -1.8%
Clc1cccc(N2CCN(c3nc4ccccc4n4nnnc34)CC2)c1 -7.39%

outcome, inactive:
CC1Cn2c(C(=O)NCc3cccc(Br)c3)cc3cccc(c32)S1 (stereo not given)
O=C(CCSCc1cccc(Cl)c1)NCc1ccc(F)cc1Cl
COc1ccc(OCC(=O)N(Cc2cccs2)c2ccc(OC)cc2)cc1
COc1ccc(Cl)cc1S(=O)(=O)Nc1cccc(-c2ccc(N3CCCC3)nn2)c1
Cc1nn2c(=O)cc(COC(=O)c3ccc(NC(=O)c4cccc(Br)c4)cc3)nc2s1
O=C(CSc1nccn1C1CCCC1)Nc1cccc(F)c1
COc1ccc(CCNC(=O)c2nc(SCc3ccccc3F)ncc2Cl)cc1OC
CCOC(=O)C1CCN(c2c(C(=O)c3ccc(OC)cc3)cnc3ccccc23)CC1
Cc1cccc(C)c1NC(=O)Cn1c(=O)n(CCCS(=O)(=O)C2CCCCC2)c(=O)c2ccccc21
Cc1ccc(-n2c(=O)c3ccc(C(=O)NCc4ccco4)cc3n(CC(=O)Nc3ccccc3C(F)(F)F)c2=O)cc1
O=C(Cn1c(=O)oc2cc(S(=O)(=O)N3CCCCCC3)ccc21)Nc1ccc(F)cc1F
Cc1cccc(NC(=O)N2CCN(C)c3ncccc32)c1C
N#Cc1ccccc1NC(=O)C(=O)NCCc1csc2nc(-c3cccc(F)c3)nn12
CC1CCC(Nc2nc3c(-c4ccc(Cl)cc4)nnn3c3ccccc23)CC1 (stereo not given)
COc1ccccc1CNS(=O)(=O)c1ccc2c(c1)NC(=O)C(C)C(=O)N2 (stereo not given)
CC(=O)Nc1ccc(/C=C/c2nc(-c3ccccc3O)n(-c3ccccc3)n2)cc1
O=C(NCc1ccccc1)c1cc2sccc2n1Cc1ccc(Cl)cc1
CCOc1ccc(N(C)C(=O)CS(=O)(=O)c2cccc3nsnc23)cc1
CCC(=O)N1c2ccccc2CC1C(=O)N1CCN(c2cccc(Cl)c2)CC1 (stereo not given)
CCc1ccc(NCc2cc3ccc(OC)cc3n(CC(=O)Nc3ccc(F)cc3F)c2=O)cc1
Cc1nn(-c2ccccc2)c2c1N(CCCC(=O)NCc1ccc(N(C)C)cc1)C(=O)CS2
O=C(c1ccco1)n1nc(-c2ccccc2)nc1NCc1ccc(Cl)cc1
COc1cccc(CNCCSc2nnnn2C)c1OCc1ccccc1Cl
Cc1nn2c(=O)cc(COC(=O)c3ccco3)nc2s1
Cc1cc(Cl)ccc1OCC(=O)Nc1c(Cl)ccc2nsnc12
Cc1cc(=O)[nH]c2nnc(SCc3ccc(F)cc3)n12
Cc1ccc(C)c(S(=O)(=O)c2nnn3c2nc(Nc2ccc(C)c(C)c2)c2sccc23)c1
O=C(COc1ccccc1F)Nc1ccc2oc(-c3cccc(Cl)c3)nc2c1
